This is an account of results in paper PMC4336329 (PLoS ONE, 2015).

The whole screen tested about 310,000 compounds, of which about 14,000 (4.5%) showed an effect of 50% or more. The effect is printed as a negative number. Some of the results follow.
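Further: peak tail current of the secondary pulse compared with the same well before compound.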

Chain of human ether-à-go-go-related gene (hERG) potassium channel (Q12809 whole entry, looked up): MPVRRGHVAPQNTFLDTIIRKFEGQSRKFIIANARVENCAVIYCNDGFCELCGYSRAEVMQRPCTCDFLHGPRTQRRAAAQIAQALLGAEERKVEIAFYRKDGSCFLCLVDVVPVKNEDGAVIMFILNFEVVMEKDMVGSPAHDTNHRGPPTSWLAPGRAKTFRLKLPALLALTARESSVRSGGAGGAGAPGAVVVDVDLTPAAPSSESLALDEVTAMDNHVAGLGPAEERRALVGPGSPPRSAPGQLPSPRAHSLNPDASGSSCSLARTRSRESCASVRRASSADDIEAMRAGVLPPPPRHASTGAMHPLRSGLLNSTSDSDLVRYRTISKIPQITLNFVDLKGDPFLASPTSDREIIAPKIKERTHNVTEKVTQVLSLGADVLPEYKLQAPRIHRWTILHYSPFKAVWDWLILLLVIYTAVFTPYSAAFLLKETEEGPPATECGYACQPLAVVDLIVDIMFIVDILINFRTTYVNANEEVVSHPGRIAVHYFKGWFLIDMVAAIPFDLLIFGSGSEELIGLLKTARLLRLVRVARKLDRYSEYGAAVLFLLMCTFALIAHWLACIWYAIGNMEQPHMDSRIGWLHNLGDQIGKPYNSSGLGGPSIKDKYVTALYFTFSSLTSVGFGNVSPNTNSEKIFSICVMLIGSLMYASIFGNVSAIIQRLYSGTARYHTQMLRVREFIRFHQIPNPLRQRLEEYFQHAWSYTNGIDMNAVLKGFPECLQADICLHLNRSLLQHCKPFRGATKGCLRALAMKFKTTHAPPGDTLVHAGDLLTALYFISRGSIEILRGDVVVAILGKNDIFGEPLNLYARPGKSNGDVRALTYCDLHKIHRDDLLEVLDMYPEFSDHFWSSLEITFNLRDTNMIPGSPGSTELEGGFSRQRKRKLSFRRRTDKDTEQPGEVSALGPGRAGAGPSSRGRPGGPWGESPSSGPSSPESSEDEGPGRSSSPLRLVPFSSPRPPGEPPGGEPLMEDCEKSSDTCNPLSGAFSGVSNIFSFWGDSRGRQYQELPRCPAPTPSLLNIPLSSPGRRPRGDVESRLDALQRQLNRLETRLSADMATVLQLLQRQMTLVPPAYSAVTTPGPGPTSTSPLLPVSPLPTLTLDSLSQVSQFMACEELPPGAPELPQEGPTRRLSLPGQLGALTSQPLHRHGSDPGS

This experiment addresses human ether-à-go-go-related gene (hERG) potassium channel (human, UniProt Q12809). The experiment can be described thus: primary screen, population patch clamp on CHO cells stably expressing hERG.
For the compound `O=C(NC(=S)Nc1ccccn1)c1ccc([N+](=O)[O-])cc1`, the “hERG current change (%, negative = inhibition) at 10uM” value is listed as -11.9%.
In the case of `C=CCN1C(=O)N/C(=C/c2ccc(N3CCOCC3)o2)C1=O` it was 5.46%.
Then `O=C(NCC(c1ccco1)N1CCc2ccccc2C1)c1ccc(Cl)cc1` (centres unmarked), with -47.8%; and `O=C(CSc1cn[nH]n1)Nc1ccc(O)c(C(=O)O)c1`, with 10.9%.
In the case of `C=CCn1c(Cn2nnc3ccccc32)nnc1SCC(=O)N/N=C/c1cc(Br)cc(OC)c1O` it was 13.5%; in that of `COc1ccc(CCNCc2c(OC)ccc3ccccc23)cc1.O=C(O)C(=O)O`, -44.9%; in that of `Cc1cccc(NC(=O)/C(C#N)=C/c2cccc([N+](=O)[O-])c2)n1`, 1.3%.
On to `Cc1cc(C(C2C(=O)CC(C)(C)CC2=O)C2C(=O)CC(C)(C)CC2=O)cc(C)c1OC(F)F`, for which the “hERG current change (%, negative = inhibition) at 10uM” value is -0.965%.
Then `Cc1nnc2ccc(-c3ccc(NC(=O)Cc4cccs4)cc3)nn12`, with -25.4%; and `CCOC(=O)N1CCN(C(=O)COc2ccc(S(=O)(=O)NCc3ccccc3)cc2)CC1`, with -28.2%.
As to `CCOc1ccc(OCC)c(NC(=O)C2CCN(c3cnccn3)CC2)c1`, the “hERG current change (%, negative = inhibition) at 10uM” value amounted to 4.38%.
As for `O=C(c1cc(C2CC2)nn1-c1ccccc1)N1CCN(Cc2c(F)cccc2Cl)CC1`, the “hERG current change (%, negative = inhibition) at 10uM” value is on record as -36.6%.
In the case of `CCn1c(SCC(=O)NC2CCCC2)nnc1-c1cccnc1` it was 5.55%.
In the case of `CCCn1c2c(c(O)c(C(=O)Nc3ncccc3C)c1=O)CCCC2` it was -26.7%; in that of `O=C(O)CC(c1ccccc1F)N1Cc2ccccc2C1=O` (centres unmarked), 10.7%.
Then `O=C(NNC(=S)NC(=O)c1cccs1)c1ccc(NC(=O)c2ccccc2)cc1`, with 13.7%; and `O=C(Cn1ncc2c([nH]c3ccccc32)c1=O)N1CCN(c2ccccc2F)CC1`, with 1.65%; and `COc1cc([N+](=O)[O-])ccc1NC(=O)Cc1ccccc1`, with 16.3%.
Consider `CCCC(=O)Nc1nnc(S(=O)(=O)N(CC(C)C)c2ccccc2)s1`, for which the “hERG current change (%, negative = inhibition) at 10uM” value worked out at 30.8%.
Then `COc1ccc2nc(SCC(=O)Nc3ccccc3)[nH]c2c1`, with -3.45%; and `O=C(N/C=C/c1ccco1)NCc1ccccc1`, with 16.6%.
Then `COc1cc(/C=C(/C#N)C(=O)c2c(C)[nH]c3ccccc23)ccc1OCC#N`, with -2.68%; and `COCCN(C(=O)C1=COCCO1)c1c(N)n(Cc2ccccc2)c(=O)[nH]c1=O`, with 12.1%; and `CN1CCN(CC(=O)N/N=C/c2ccc(F)c(F)c2)CC1`, with 8.23%.
Then `Cc1ccc2nc(N(CCN(C)C)C(=O)c3cc(Cl)sc3Cl)sc2c1.Cl`, with 7.55%; and `CC1(C(=O)NCCCN2CCOCC2)Oc2cccnc2NC1=O` (centres unmarked), with 13.2%.
As for `O=C(c1cccs1)n1nc(-c2ccco2)nc1SCc1ccccc1`, the “hERG current change (%, negative = inhibition) at 10uM” value is listed as 5.76%.
Then `CCc1ccc(NC(=O)CNC(=O)Cn2ccc3ccccc3c2=O)cc1`, with 19.8%; and `CC(=O)c1ccc(OCC(C)C)c(CC(C(N)=O)C(N)=O)c1`, with 19.2%.
Then `CNP1(NC)=Nc2nn(-c3ccccc3)c(N)c2C(c2ccccc2)=N1`, with 5.52%; and `CC1=CC(C)(C)NC(=O)N1c1ccc(C)cc1`, with 4.5%.
With `COc1ccccc1CC1S/C(=N/N=C/c2ccco2)NC1=O` (centres unmarked), the “hERG current change (%, negative = inhibition) at 10uM” value was 17%.
Regarding `O=C(c1ccccn1)c1conc1C(=O)c1ccc(Br)cc1`, the “hERG current change (%, negative = inhibition) at 10uM” value is -27.2%.
In the case of `CCCCN(CCCC)C(=O)c1sc2nc(N3CCOCC3)c3c(c2c1N)CCCC3` it was 9%.
In the case of `C/C(=N\O)c1ccccc1C(=O)O` it was 7.25%; in that of `COc1cccc(-c2nc(CS(=O)(=O)CC(=O)NCc3ccc(Cl)cc3)c(C)o2)c1`, 2.76%.
Then `Cc1cc(-c2ccccc2C(=O)NCc2ccccc2)on1`, with 5.04%; and `O=C(Nc1ccccc1F)Nc1cccnc1Cl`, with 9.22%; and `CCn1c(C(C)C)n[nH]c1=S`, with 11.5%.
Consider `CCCC(=O)OCC(=O)NC1CCCc2ccccc21` (centres unmarked), for which the “hERG current change (%, negative = inhibition) at 10uM” value was determined as 19.7%.
Then `COC(=O)C1C(C(=O)OC)C1(c1ccccc1)c1ccccc1` (centres unmarked), with 16.2%; and `Cn1c(SCC(=O)Nc2nc3ccccc3s2)nnc1-c1ccccc1`, with 10.3%.
Then `O=C(CSc1ccc(-c2cccs2)nn1)N1CCCCC1`, with -4.77%; and `COCCCN1C(=O)c2ccc(C(=O)N3CCN(c4ccc(OC)cc4)CC3)cc2C1=O`, with -10.6%; and `CCc1cccc(NC(=O)CCc2c(C)nn(-c3ccc(N4CCOCC4)nn3)c2C)c1`, with -51.4%.
In the case of `O=Cc1cccn1-c1nccc(-c2ccco2)n1` it was -17.7%; in that of `CC(C)CCNC(=O)NC(=O)COC(=O)CCN=C1NS(=O)(=O)c2ccccc21`, 12.2%; in that of `O=C1CSC(c2cn(-c3ccccc3)nc2-c2cc3ccccc3oc2=O)N1Cc1ccccc1` (centres unmarked), 5.85%.
For `COC(=O)C1=C(c2ccc(F)cc2OCc2ccccc2)C[C@@H]2CC[C@H]1N2C(=O)NCc1ccc(N(C)C)cc1`, the “hERG current change (%, negative = inhibition) at 10uM” value was 5.5%.
Then `Fc1cccc(CCN2CCNC[C@@H]2Cc2ccccc2)c1`, with -4.41%.
In the case of `CCc1cc2c(=O)[nH]cnc2s1` it was -3.48%.
As to `O=c1[nH]nc(CSCc2ccccc2Cl)[nH]1`, the “hERG current change (%, negative = inhibition) at 10uM” value is 6.6%.
`COc1ccccc1N1CC(C(=O)Nc2cc(C(F)(F)F)ccc2N2CCCC2)CC1=O` (centres unmarked): the “hERG current change (%, negative = inhibition) at 10uM” value is reported as -15.3%.
In the case of `COc1cc2cc(CN(C(=O)NC3CCCCC3)C3CCCC3)c(=O)[nH]c2cc1OC` it was -8.99%; in that of `Cc1csc(Nc2ccc(Cl)cc2)n1`, 4.47%.
Then `N#Cc1nc(COc2ccccc2)oc1N1CCCC1`, with -31.1%; and `COc1cccc(-c2onc3ccc(C(=O)/C=C/N(C)C)cc23)c1`, with -31.4%; and `CCOc1ccc(/C=C2\CCC(C3CCCC3)C2=O)cc1` (centres unmarked), with 10.6%.
In the case of `C/C(=N\NC(=O)CN(c1ccc(Oc2ccccc2)cc1)S(C)(=O)=O)C(C)(C)C` it was 7.07%; in that of `Cn1cccc1CC(=O)NNC(=S)NC(=O)c1ccccc1Br`, 13.1%.
As for `CC(=O)Nc1ccc(Nc2c3c4c(cccc4n(C)c2=O)C(=O)c2ccccc2-3)cc1`, the “hERG current change (%, negative = inhibition) at 10uM” value is 7.17%.
In the case of `COc1cc(/C=N/NC(=S)Nc2cccc(C(=O)O)c2)cc(OC)c1OC` it was 43%.
Then `CCc1noc(C)c1C(=O)Nc1ccc(-c2nnc3n2CCCCC3)cc1`, with 14.1%; and `Cn1c(CNC(=O)C2CCCCC2)cc2cc(Cl)ccc21`, with 9.29%; and `O=C(c1ccc(Cl)cc1)N1CCN(C(=O)c2ccco2)CC1`, with -21%.
As for `O=C(c1ccccc1F)N(Cc1ccccc1)Cc1ccccc1`, the “hERG current change (%, negative = inhibition) at 10uM” value is 2.16%.
Then `COC(=O)c1oc2ccc(Br)cc2c1NC(=O)c1ccccc1`, with 11.5%; and `NS(=O)(=O)c1ccc(NC(=O)c2ccc3nccnc3c2)cc1`, with 0.796%; and `COC(=O)c1c(NC(=O)CCC(=O)O)sc(Cc2ccccc2)c1C`, with -7.29%.
In the case of `CC1CCCN(S(=O)(=O)c2ccc(C(=O)Nc3nnc(-c4ccccc4Cl)o3)cc2)C1` (centres unmarked) it was 9.83%; in that of `COc1ccc(-n2nc3c(c2NC(=O)c2ccc4c(c2)OCO4)CS(=O)(=O)C3)cc1`, -7.66%; in that of `O=C(NC12CC3CC(CC(C3)C1)C2)c1ccccc1O`, 7.43%.
In the case of `Cl.O=C(CN1CCCC1)N1c2ccccc2Sc2ccc(C(F)(F)F)cc21` it was 1.06%; in that of `CCn1c(SCc2nc(-c3ccccc3)no2)nnc1-c1cccs1`, -61.2%.
In the case of `CCN1C(=O)[C@H]2[C@@H](c3ccc(-c4cccc(Cl)c4)c(OC)c3)N[C@@](CC(C)C)(C(=O)OC)[C@H]2C1=O.O=C(O)C(F)(F)F`, the “hERG current change (%, negative = inhibition) at 10uM” value was 15.2%.
For `COc1ccc(N2CCN(C(=O)c3ccc(C)c(NC(=O)c4ccco4)c3)CC2)cc1`, the “hERG current change (%, negative = inhibition) at 10uM” value is -74.8%.
As to `C/C(N)=C(/C#N)C(=O)COC(=O)CCC1CCCC1`, the “hERG current change (%, negative = inhibition) at 10uM” value is -4.73%.
Then `Cc1cc(=O)[nH]c2c1cnn2C(C)c1ccccc1` (centres unmarked), with 20.8%.
As to `O=C(Nc1nnc(S(=O)(=O)N2CCOCC2)s1)c1ccccc1`, the “hERG current change (%, negative = inhibition) at 10uM” value turned out to be 5.83%.
Then `Cc1cccc(C)c1OCc1cc(C(=O)N2CCN(C3CCCC3)CC2)no1`, with -67.9%; and `CN1CCc2c(sc3c2C(=O)NC(c2cn(Cc4ccccc4)c4ccccc24)N3)C1` (centres unmarked), with -19.3%; and `Cc1cc(C)n(-c2nnc(C)n2NC(=O)c2cccc(Cl)c2)n1`, with 11.1%.
Then `COc1ccc(-c2nnnn2C(C)C)cc1`, with -0.893%; and `Cn1nnnc1Sc1ncnc2scc(-c3ccc(Cl)cc3)c12`, with -17.3%; and `COc1ccc(CC(=O)Nc2ccc3c(C)cc(=O)oc3c2)cc1OC`, with 7.85%.
`Cc1ccc(NC(=O)CSc2nnc(-c3ccncc3)n2C)cc1C`: the “hERG current change (%, negative = inhibition) at 10uM” value is given as -13.9%.
With `CCN(CC)C(=O)N1CCN(c2c([N+](=O)[O-])c(=O)oc3ccccc23)CC1`, the “hERG current change (%, negative = inhibition) at 10uM” value was -25.7%.
Then `Fc1ccc(N/N=C(/c2ccccc2)c2ccccn2)cc1`, with -12.5%; and `COc1ccc(CC(=O)OCC(=O)NCc2ccccc2Cl)cc1`, with 3.2%.
